Results on 58 compounds are retold here after the supplement of paper PMC9135407.

In this experiment the test system is primary human hepatic stellate cells (donor 1). The experiment is described as follows: scaled lipid accumulation score (0 = DMSO-like, 1 = nortriptyline-like); higher = stronger HSC inactivation (lipid re-accumulation), active = hit call of the paper. Conditions: 48 h.
Setting [1] is: library stock concentration: 80 uM.
[2] abbreviates: library stock concentration: 400 uM.
[3] abbreviates: library stock concentration: 10 mM.
[4] abbreviates: library stock concentration: 1 mM.
[5] abbreviates: library stock concentration: 4.7 mM.
Where [6] appears, read: library stock concentration: 3.33 mM.
Where [7] appears, read: library stock concentration: 2 mM.

Several values for one entry are separate records, joined by “and”; a condition that tells them apart may be missing. Equal values may be shown once. Where a name gives a salt, the structure may show the parent alone. The whole screen tested about 5,800 compounds, of which about 620 (11%) showed activity.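 How the source made its calls: active = score above a cut-off or among the top three wells of a plate; in these data no inactive exceeds 0.85.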 The list shows a part of the results, in another mix than the full data. Where only a bound is given, the exact number is not on record here.

With `CN1CCN(Cc2ccc(-c3cnc4[nH]cc(-c5ccc6[nH]ccc6c5)c4c3)cc2)CC1`, the “scaled lipid accumulation score” value is inactive: ≤ -0.001 under setting [1], inactive: 0.001 under setting [2] and inactive: 0.422 under setting [3].
For the compound `CO[C@H]1C[C@H](O[C@@H]2/C(C)=C/C[C@@H]3C[C@@H](C[C@]4(CC[C@H](C)[C@@H](C5CCCCC5)O4)O3)OC(=O)[C@@H]3C=C(C)/C(=N/O)[C@H]4OC/C(=C\C=C\[C@@H]2C)[C@]43O)O[C@@H](C)[C@@H]1O` [Selamectin], the “scaled lipid accumulation score” value runs as follows: (library stock concentration: 2.6 mM) inactive: ≤ 0; under setting [3], inactive: ≤ -0.027.
For `Cc1nc2sccn2c(=O)c1CCN1CCC(=C(c2ccc(F)cc2)c2ccc(F)cc2)CC1` [Ritanserin], the “scaled lipid accumulation score” value under setting [3] is inactive: 0.133 and inactive: 0.043.
For the compound `Cc1oc(S(=O)(=O)N2CCCCC2)cc1NC(=O)Nc1ccccc1`, under setting [4], the “scaled lipid accumulation score” value is inactive: ≤ 0.
Regarding `C[C@H](CCC(=O)O)[C@H]1CC[C@H]2[C@@H]3C(=O)C[C@@H]4CC(=O)CC[C@]4(C)[C@H]3CC(=O)[C@]12C` [Dehydrocholic acid], the “scaled lipid accumulation score” value is inactive: ≤ 0. In addition, the “scaled lipid accumulation score” value (library stock concentration: 5 mM) was inactive: ≤ 0.
`C[C@H](CCC(=O)O)[C@H]1CC[C@H]2[C@@H]3C(=O)C[C@@H]4CC(=O)CC[C@]4(C)[C@H]3CC(=O)[C@]12C` [Sodium dehydrocholate]: the “scaled lipid accumulation score” value is, setting by setting: under setting [5], inactive: ≤ 0; under setting [3], inactive: ≤ 0.
Turning to `C[C@H](CCC(=O)O)[C@H]1CC[C@H]2[C@@H]3C(=O)C[C@@H]4CC(=O)CC[C@]4(C)[C@H]3CC(=O)[C@]12C`, under setting [3], the “scaled lipid accumulation score” value is inactive: ≤ 0.
With `CCOC(=O)c1ccc(NC2CCCCC2)c(N)c1` [Ferrostatin-1 (Fer-1)], the “scaled lipid accumulation score” value reads like this: under setting [6], inactive: 0.153; under setting [3], inactive: 0.44.
On to `O=C1c2c(O)ccc(O)c2C(=O)c2c(NCCNCCO)ccc(NCCNCCO)c21`, for which the “scaled lipid accumulation score” value under setting [3] was inactive: ≤ 0.
Turning to `O=C1c2c(O)ccc(O)c2C(=O)c2c(NCCNCCO)ccc(NCCNCCO)c21` [Mitoxantrone dihydrochloride], the “scaled lipid accumulation score” value was inactive: ≤ 0.
As to `O=C1c2c(O)ccc(O)c2C(=O)c2c(NCCNCCO)ccc(NCCNCCO)c21` [Mitoxantrone], the “scaled lipid accumulation score” value under setting [6] was inactive: 0.297; the “scaled lipid accumulation score” value under setting [3] was inactive: ≤ 0 and inactive: ≤ -0.055.
Turning to `O=C1c2c(O)ccc(O)c2C(=O)c2c(NCCNCCO)ccc(NCCNCCO)c21` [Mitoxantrone 2HCl], the “scaled lipid accumulation score” value (library stock concentration: 4.5 mM) is inactive: ≤ 0.
For `O=C1c2c(O)ccc(O)c2C(=O)c2c(NCCNCCO)ccc(NCCNCCO)c21` [Mitoxantrone HCl], the “scaled lipid accumulation score” value by setting is: under setting [6], inactive: 0.377; under setting [3], inactive: ≤ 0.
As for `O=C1c2c(O)ccc(O)c2C(=O)c2c(NCCNCCO)ccc(NCCNCCO)c21` [Mitoxanthrone hydrochloride], the “scaled lipid accumulation score” value under setting [3] is inactive: ≤ -0.027.
Take `CCN1CCCC1CNC(=O)c1cc(S(N)(=O)=O)ccc1OC` (single isomer, unassigned; (-)) [(-)-Sulpiride]: under setting [3], the “scaled lipid accumulation score” value is inactive: ≤ 0.
With `CCN1CCCC1CNC(=O)c1cc(S(N)(=O)=O)ccc1OC` (single isomer, unassigned; (-)) [(?)-Sulpiride], the “scaled lipid accumulation score” value under setting [3] was inactive: 0.072.
`CCN1CCCC1CNC(=O)c1cc(S(N)(=O)=O)ccc1OC` (single isomer, unassigned; (-)) [Sulpiride]: the “scaled lipid accumulation score” value is inactive: 0.022. Further, the “scaled lipid accumulation score” value (library stock concentration: 5.9 mM) was inactive: ≤ 0.
On to `O=C(O)CCC(=O)c1ccc(-c2ccccc2)cc1` [Fenbufen], for which the “scaled lipid accumulation score” value was inactive: 0.047. Besides, the “scaled lipid accumulation score” value (library stock concentration: 7.9 mM) was inactive: ≤ 0. For the same compound, the “scaled lipid accumulation score” value under setting [3] is inactive: ≤ 0.
In the case of `CCS(=O)(=O)N(C)[C@H]1c2cc(C#N)ccc2OC(C)(C)[C@@H]1O` (racemic) [Chromanol 293B], under setting [3], the “scaled lipid accumulation score” value was inactive: ≤ 0.
`CN1CCCN(C(=O)c2cccc(-c3ccc(/C=C4/C(=O)Nc5ccc(Cl)cc54)o3)c2)CC1`: the “scaled lipid accumulation score” value is inactive: 0.657 under setting [6] and inactive: ≤ -0.001 under setting [3].
On to `CCCCCCCCOc1ccccc1C(=O)Nc1ccc(C(=O)OCC[N+](C)(CC)CC)cc1` [Otilonium Bromide], for which the “scaled lipid accumulation score” value runs as follows: under setting [6], inactive: ≤ 0; under setting [3], inactive: ≤ 0.
As for `N[C@@H](Cc1ccc(O)c(O)c1)C(=O)O` [Levodopa], the “scaled lipid accumulation score” value is inactive: ≤ 0. Moreover, the “scaled lipid accumulation score” value under setting [3] is inactive: ≤ -0.027.
As for `N[C@@H](Cc1ccc(O)c(O)c1)C(=O)O` [L-3,4-Dihydroxyphenylalanine], the “scaled lipid accumulation score” value under setting [3] is inactive: 0.017.
`CCCCc1ncc(/C=C(\Cc2cccs2)C(=O)O)n1Cc1ccc(C(=O)O)cc1` [Eprosartan Mesylate]: the “scaled lipid accumulation score” value under setting [6] was inactive: ≤ 0 and the “scaled lipid accumulation score” value under setting [3] was inactive: ≤ -0.001.
With `CCCCc1ncc(/C=C(\Cc2cccs2)C(=O)O)n1Cc1ccc(C(=O)O)cc1` [Eprosartan], the “scaled lipid accumulation score” value under setting [5] is inactive: 0.027.
`CCCCc1ncc(/C=C(\Cc2cccs2)C(=O)O)n1Cc1ccc(C(=O)O)cc1` [Eprosartan mesylate]: the “scaled lipid accumulation score” value under setting [3] is inactive: ≤ -0.055.
For the compound `CC1(COc2ccc(CC3SC(=O)NC3=O)cc2)CCCCC1` (stereo not given) [Ciglitazone], the “scaled lipid accumulation score” value was inactive: ≤ 0 and inactive: ≤ -0.021 under setting [4]; inactive: ≤ -0.006 under setting [3].
For `CCc1ccc(OCc2ccccc2C(=O)Nc2ccc3nc(C)cc(N)c3c2)cc1`, the “scaled lipid accumulation score” value is inactive: 0.324 under setting [6]; inactive: 0.261 and inactive: ≤ -0.001 under setting [3].
For the compound `Cn1nc(C(C)(C)C)cc1C(=O)N[C@@H](Cc1cccc(Cl)c1)C(=O)NCC#N` [Cathepsin Inhibitor 1], the “scaled lipid accumulation score” value is inactive: ≤ 0 under setting [6] and inactive: ≤ 0 under setting [3].
For `CN(C)CCc1c[nH]c2ccc(CS(=O)(=O)N3CCCC3)cc12` [Almotriptan Malate], the “scaled lipid accumulation score” value is, setting by setting: under setting [6], inactive: 0.022; under setting [3], inactive: ≤ 0.
Consider `CN(C)CCc1c[nH]c2ccc(CS(=O)(=O)N3CCCC3)cc12` [Almotriptan], for which, under setting [3], the “scaled lipid accumulation score” value is inactive: 0.075.
With `CN(c1ncccc1CNc1nc(Nc2ccc3c(c2)CC(=O)N3)ncc1C(F)(F)F)S(C)(=O)=O`, the “scaled lipid accumulation score” value was inactive: ≤ 0 under setting [1]; inactive: ≤ 0 and inactive: ≤ -0.005 under setting [2]; inactive: ≤ 0 and inactive: ≤ -0.005 under setting [7]; inactive: ≤ 0 and inactive: 0.045 and inactive: ≤ -0.009 under setting [6].
As to `CC(C)SC(=N)N` [S-isopropyl Isothiourea (hydrobromide)], the “scaled lipid accumulation score” value under setting [4] was inactive: ≤ 0.
As for `CC(C)SC(=N)N` [S-Isopropylisothiourea hydrobromide], the “scaled lipid accumulation score” value under setting [3] was inactive: ≤ 0.
Take `O=C(Nc1ccccc1)N1CCN(c2nc(-c3ccccc3)ns2)CC1`: the “scaled lipid accumulation score” value under setting [6] was inactive: ≤ 0 and the “scaled lipid accumulation score” value under setting [3] is inactive: ≤ 0.
Consider `CC(CNC(=O)c1cccnc1)NC(=O)c1cccnc1` (stereo not given) [Nicaraven], for which the “scaled lipid accumulation score” value was inactive: ≤ 0 under setting [6] and inactive: ≤ -0.001 under setting [3].
For the compound `N[C@H](C(=O)O)c1ccc(C(=O)O)c(O)c1` [(S)-4-Carboxy-3-hydroxyphenylglycine], the “scaled lipid accumulation score” value under setting [3] was inactive: ≤ 0.
As to `Cc1cnc(NC(=O)Nc2cc(Br)c(C)cc2OC[C@@H]2CNCCO2)cn1`, the “scaled lipid accumulation score” value under setting [1] was inactive: ≤ 0; the “scaled lipid accumulation score” value under setting [2] was inactive: 0.041; the “scaled lipid accumulation score” value under setting [7] is inactive: 0.321; the “scaled lipid accumulation score” value under setting [6] is inactive: 0.754; the “scaled lipid accumulation score” value under setting [3] was inactive: 0.543 and inactive: 0.824.
Consider `CCCCC[C@@H](O)/C=C/[C@H]1[C@H](C/C=C\CCCC(=O)O)[C@H](O)C[C@@H]1O` [ent-Prostaglandin F2.alpha.], for which the “scaled lipid accumulation score” value under setting [4] was inactive: ≤ 0.
For the compound `O=C(O)c1cc(=O)c2ccccc2[nH]1` [Kynurenic acid], under setting [3], the “scaled lipid accumulation score” value was inactive: 0.025 and inactive: ≤ -0.055 and inactive: ≤ 0.
With `Nc1cc(C(F)(F)F)c(-c2cc(N3CCOCC3)nc(N3CCOCC3)n2)cn1`, the “scaled lipid accumulation score” value runs as follows: under setting [1], inactive: ≤ -0.009; under setting [2], inactive: 0.033; under setting [7], inactive: 0.091; under setting [3], inactive: 0.096.
Consider `Nc1cc(C(F)(F)F)c(-c2cc(N3CCOCC3)nc(N3CCOCC3)n2)cn1` [BKM120 (NVP-BKM120, Buparlisib)], for which the “scaled lipid accumulation score” value by setting is: under setting [6], inactive: ≤ 0; under setting [3], inactive: ≤ 0.
As for `Cc1c(C(=O)Nc2ccc(N3C[C@@H](C)O[C@@H](C)C3)nc2)cccc1-c1ccc(OC(F)(F)F)cc1` [LDE225 (NVP-LDE225,Erismodegib)], the “scaled lipid accumulation score” value reads like this: under setting [6], inactive: 0.049; under setting [3], inactive: 0.703.
Regarding `CNCCCN1c2ccccc2CCc2ccccc21.Cl` [Desipramine hydrochloride], the “scaled lipid accumulation score” value under setting [3] is active: 1.15.
With `CSCC[C@H](NC(=O)[C@H](Cc1c[nH]c2ccccc12)NC(=O)CCNC(=O)OC(C)(C)C)C(=O)N[C@@H](CC(=O)O)C(=O)N[C@@H](Cc1ccccc1)C(N)=O`, the “scaled lipid accumulation score” value under setting [3] is inactive: ≤ 0.
The same measure, in the same setting: the same measure for `CC(C)NNC(=O)c1ccncc1` [Iproniazid sulfate]: inactive: ≤ 0; for `CC(C)NNC(=O)c1ccncc1` [Iproniazid phosphate]: inactive: ≤ -0.055.
On to `CC(C)NNC(=O)c1ccncc1` [Iproniazide phosphate], for which the “scaled lipid accumulation score” value was inactive: 0.076.
As for `O=C1c2cccc(O)c2C(=O)c2c(O)cccc21` [Danthron], the “scaled lipid accumulation score” value (library stock concentration: 8.3 mM) was inactive: 0.038.
Consider `COc1cccc(-c2cc(F)ccc2C2Cc3nc(N)nc(C)c3C(=O)N2)n1` (stereo not given), for which, under setting [6], the “scaled lipid accumulation score” value is inactive: 0.806.
In the case of `CCOC(N)=O` [Urethane], the “scaled lipid accumulation score” value is inactive: 0.012 under setting [3] and inactive: ≤ 0 (library stock concentration: 22.4 mM).
As to `CCc1ccc(/C=C2/SC(=S)NC2=O)cc1`, the “scaled lipid accumulation score” value under setting [6] was inactive: ≤ -0.009; the “scaled lipid accumulation score” value under setting [3] was inactive: 0.069 and inactive: 0.032.
`CC(=Nc1ccccc1N)c1c(C)cc(=O)n(O)c1O`: the “scaled lipid accumulation score” value under setting [3] was inactive: ≤ 0.
As to `CC1(COc2ccc3c(c2)ncn3-c2ccc3cccc(N4CCC(N)CC4)c3n2)COC1`, the “scaled lipid accumulation score” value under setting [6] was active: 0.869.
On to `CCN(CC)CCNC(=O)c1cc(Br)c(N)cc1OC` [Bromopride], for which the “scaled lipid accumulation score” value was inactive: ≤ 0. Further, under setting [3], the “scaled lipid accumulation score” value was inactive: ≤ -0.027.
Turning to `CCCCC(=O)N(Cc1ccc(-c2ccccc2-c2nnn[nH]2)cc1)[C@H](C(=O)O)C(C)C`, the “scaled lipid accumulation score” value under setting [3] is inactive: ≤ 0.
For the compound `CCCCC(=O)N(Cc1ccc(-c2ccccc2-c2nnn[nH]2)cc1)[C@H](C(=O)O)C(C)C` [Valsartan], the “scaled lipid accumulation score” value is, setting by setting: under setting [6], inactive: ≤ 0; under setting [3], inactive: ≤ 0 and inactive: ≤ -0.027.
In the case of `CC(C)=CCC/C(C)=C/CC/C(C)=C/CSc1ccccc1C(N)=O` [Farnesyl Thiosalicylic Acid Amide], under setting [4], the “scaled lipid accumulation score” value was inactive: ≤ 0.
